# Source: article PMC5892938
# Some of the results follow. At the low end of the ranking the order means little.
# Biological target: GST-SBP-SLBP (stem-loop binding protein) (UniProt Q14493)
# Assay: targeted RNA Bind-n-Seq;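 further: DESeq read counts versus GST-SBP nonspecific binding control pulldown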
# Details: RBNS binding buffer: 25 mM Tris pH 7.5, 150 mM KCl, 3 mM MgCl2, 0.1% Tween, 0.5 mg/mL BSA, 1 mM DTT; 27 nM protein, 750 pM RNA pool; temperature not stated; high values mean tight binding
row,Sequence,binding signal (log2 fold change)
1,GGUCACGUCUCAAUCAACUCAUUCGCAGGAGUUUCCUCCUGGUUUUUCAACAGCUCGCAGUCAAG,0.154
2,GGUCACGUCUCAAUCAACUCAUUUCCCAGGGAAACCCCUGGUAUAUUCAACAGCUCGCAGUCAAG,-0.2
3,GGUCACGUCUCAAUCAACUCUUCUCCCAGGGAAAACCCUGGCAAAUUCAACAGCUCGCAGUCAAG,0.0508
4,GGUCACGUCUCAAUCAACUCUUUCCCCAGGGAAAUCCCUGGCUAAUUCAACAGCUCGCAGUCAAG,-0.242
5,GGUCACGUCUCAAUCAACUCUUUCCCCAGGGAAACCCCUGGUAUAUUCAACAGCUCGCAGUCAAG,-0.362
6,GGUCACGUCUCAAUCAACUCUUCUUCCAGGGAAAGCCCUGGCAUUCUCAACAGCUCGCAGUCAAG,-0.0527
7,GGUCACGUCUCAAUCAACUCAAUCUCAGGAGUUUCCUCCUGCUUUUUCAACAGCUCGCAGUCAAG,0.123
8,GGUCACGUCUCAAUCAACUCAUCUCCCAGGGAAACCCCUGGCUAACUCAACAGCUCGCAGUCAAG,0.0359
9,GGUCACGUCUCAAUCAACUCAUCCUCCAGGGAAAACCCUGGUAUUUUCAACAGCUCGCAGUCAAG,0.0465
10,GGUCACGUCUCAAUCAACUCAACUUCAGGAGUUUGCUCCUGCAAUGUCAACAGCUCGCAGUCAAG,-0.0505
11,GGUCACGUCUCAAUCAACUCAAUCUCCAGGGAAACCCCUGGCUAAUUCAACAGCUCGCAGUCAAG,0.0229
12,GGUCACGUCUCAAUCAACUCUUCUUCAGGAGUUUUCUCCUGCUUUCUCAACAGCUCGCAGUCAAG,0.111
13,GGUCACGUCUCAAUCAACUCCUAGGAGGGGGGGAAAACCCCUUUACCCUCAUUAUCAACAGCUCGCAGUCAAG,-0.094
14,GGUCACGUCUCAAUCAACUCUACUCCCAGGGAAAUCCCUGGUAUAUUCAACAGCUCGCAGUCAAG,0.275
15,GGUCACGUCUCAAUCAACUCUAAAGAGGGGGGGAAAACCCCUUUACCCUCACAAUCAACAGCUCGCAGUCAAG,-0.654
16,GGUCACGUCUCAAUCAACUCCUUGGAGGGGGGGAAAACCCCUUUACCCUCAAUUUCAACAGCUCGCAGUCAAG,-0.0826
17,GGUCACGUCUCAAUCAACUCACACGAGGGGGGGAAAACCCCUUUGCCCUCAAUUUCAACAGCUCGCAGUCAAG,-0.115
18,GGUCACGUCUCAAUCAACUCCCUAGAGGGGGGGAAAACCCCUUUACCCUCCAAAUCAACAGCUCGCAGUCAAG,-0.14
19,GGUCACGUCUCAAUCAACUCAAUGUCCAGGGAAAGCCCUGGUUUUUUCAACAGCUCGCAGUCAAG,-0.133
20,GGUCACGUCUCAAUCAACUCAUUCUCAGGAGUUUUCUCCUGUAAUUUCAACAGCUCGCAGUCAAG,-0.00631
21,GGUCACGUCUCAAUCAACUCAUUAGAGGGGGGGAAAACCCCUUUGCCCUCACCUUCAACAGCUCGCAGUCAAG,0.303
22,GGUCACGUCUCAAUCAACUCAUCUCCAGGAGUUUUCUCCUGUUUACUCAACAGCUCGCAGUCAAG,-0.0794
23,GGUCACGUCUCAAUCAACUCAUUUUCCAGGGAAAACCCUGGUAUAUUCAACAGCUCGCAGUCAAG,-0.0333
24,GGUCACGUCUCAAUCAACUCUUUUCCCAGGGAAAUCCCUGGUUAACUCAACAGCUCGCAGUCAAG,-0.314
25,GGUCACGUCUCAAUCAACUCUAUCCCCAGGGAAAACCCUGGCUAACUCAACAGCUCGCAGUCAAG,-0.187

row,Sequence,binding signal (log2 fold change)
1,GGUCACGUCUCAAUCAACUCUUCUUCCAGGGAAACCCCUGGCUUACUCAACAGCUCGCAGUCAAG,0.186
2,GGUCACGUCUCAAUCAACUCUACUCCAGGAGUUUUCUCCUGUAUACUCAACAGCUCGCAGUCAAG,0.0708
3,GGUCACGUCUCAAUCAACUCAUCCUCCAGGGAAAGCCCUGGUUAAUUCAACAGCUCGCAGUCAAG,0.0189
4,GGUCACGUCUCAAUCAACUCAUCGUCAGGAGUUUUCUCCUGCUAUCUCAACAGCUCGCAGUCAAG,0.0236
5,GGUCACGUCUCAAUCAACUCUUCCUCCAGGGAAACCCCUGGCUUACUCAACAGCUCGCAGUCAAG,0.144
6,GGUCACGUCUCAAUCAACUCUUCGUCAGGAGUUUCCUCCUGCAUAUUCAACAGCUCGCAGUCAAG,0.0823
7,GGUCACGUCUCAAUCAACUCAAUUCCAGGAGUUUGCUCCUGUAUUCUCAACAGCUCGCAGUCAAG,0.00483
8,GGUCACGUCUCAAUCAACUCAUCCGAGGGGGGGAAAACCCCUUUACCCUCACAAUCAACAGCUCGCAGUCAAG,-0.0066
9,GGUCACGUCUCAAUCAACUCUUUUUCAGGAGUUUCCUCCUGUAUUUUCAACAGCUCGCAGUCAAG,-0.0781
10,GGUCACGUCUCAAUCAACUCUAAAGAGGGGGGGAAAACCCCUUUGCCCUCAAUCUCAACAGCUCGCAGUCAAG,-0.121
11,GGUCACGUCUCAAUCAACUCUACUUCAGGAGUUUCCUCCUGUAUUCUCAACAGCUCGCAGUCAAG,0.0692
12,GGUCACGUCUCAAUCAACUCAUUUCCCAGGGAAAGCCCUGGUUAUUUCAACAGCUCGCAGUCAAG,-0.00142
13,GGUCACGUCUCAAUCAACUCAUUUUCAGGAGUUUACUCCUGCUAACUCAACAGCUCGCAGUCAAG,0.167
14,GGUCACGUCUCAAUCAACUCAUUAGAGGGGGGGAAAACCCCUUUGCCCUCACAUUCAACAGCUCGCAGUCAAG,0.0114
15,GGUCACGUCUCAAUCAACUCUAUCUCAGGAGUUUCCUCCUGUUUUUUCAACAGCUCGCAGUCAAG,0.17
16,GGUCACGUCUCAAUCAACUCAUCCUCCAGGGAAACCCCUGGUUAUUUCAACAGCUCGCAGUCAAG,-0.0566
17,GGUCACGUCUCAAUCAACUCAAAUGAGGGGGGGAAAACCCCUUUACCCUCCAAUUCAACAGCUCGCAGUCAAG,-0.175
18,GGUCACGUCUCAAUCAACUCUUUUUCAGGAGUUUCCUCCUGUAAUUUCAACAGCUCGCAGUCAAG,0.0153
19,GGUCACGUCUCAAUCAACUCUUCCCCCAGGGAAACCCCUGGCUUUCUCAACAGCUCGCAGUCAAG,0.0336
20,GGUCACGUCUCAAUCAACUCUUCAGAGGGGGGGAAAACCCCUUUGCCCUCAAAUUCAACAGCUCGCAGUCAAG,0.196
21,GGUCACGUCUCAAUCAACUCUACUCCCAGGGAAAUCCCUGGUUUUCUCAACAGCUCGCAGUCAAG,0.0802
22,GGUCACGUCUCAAUCAACUCAAGUCCCAGGGAAAACCCUGGUAAAUUCAACAGCUCGCAGUCAAG,0.0159
23,GGUCACGUCUCAAUCAACUCAGUCUCAGGAGUUUACUCCUGCUUAUUCAACAGCUCGCAGUCAAG,0.314
24,GGUCACGUCUCAAUCAACUCAUUUUCAGGAGUUUGCUCCUGCAUUCUCAACAGCUCGCAGUCAAG,0.125
25,GGUCACGUCUCAAUCAACUCAGUUUCCAGGGAAACCCCUGGCAUAUUCAACAGCUCGCAGUCAAG,0.0438

row,Sequence,binding signal (log2 fold change)
1,GGUCACGUCUCAAUCAACUCCCAAGAGGGGGGGAAAACCCCUUUGCCCUCAUUUUCAACAGCUCGCAGUCAAG,-0.383
2,GGUCACGUCUCAAUCAACUCGCAAGAGGGGGGGAAAACCCCUUUACCCUCAACAUCAACAGCUCGCAGUCAAG,-0.166
3,GGUCACGUCUCAAUCAACUCUUCUUCCAGGGAAAACCCUGGCUAUGUCAACAGCUCGCAGUCAAG,0.0846
4,GGUCACGUCUCAAUCAACUCAUCAGAGGGGGGGAAAACCCCUUUGCCCUCAUUAUCAACAGCUCGCAGUCAAG,-0.0478
5,GGUCACGUCUCAAUCAACUCAUUUCCCAGGGAAAACCCUGGCUUUUUCAACAGCUCGCAGUCAAG,-0.151
6,GGUCACGUCUCAAUCAACUCAUCCCCAGGAGUUUUCUCCUGUAUAUUCAACAGCUCGCAGUCAAG,0.137
7,GGUCACGUCUCAAUCAACUCUUACGAGGGGGGGAAAACCCCUUUACCCUCUUUCUCAACAGCUCGCAGUCAAG,0.0336
8,GGUCACGUCUCAAUCAACUCAUCGUCCAGGGAAAGCCCUGGCUUUUUCAACAGCUCGCAGUCAAG,0.162
9,GGUCACGUCUCAAUCAACUCUUCUUCCAGGGAAAGCCCUGGUAUAUUCAACAGCUCGCAGUCAAG,0.0314
10,GGUCACGUCUCAAUCAACUCUAUUUCCAGGGAAAUCCCUGGCAUGUUCAACAGCUCGCAGUCAAG,0.133
11,GGUCACGUCUCAAUCAACUCUAUCUCCAGGGAAAACCCUGGUAAAUUCAACAGCUCGCAGUCAAG,-0.277
12,GGUCACGUCUCAAUCAACUCUAUUCCAGGAGUUUCCUCCUGCUAAUUCAACAGCUCGCAGUCAAG,-0.113
13,GGUCACGUCUCAAUCAACUCUAUUUCCAGGGAAAGCCCUGGCUUUCUCAACAGCUCGCAGUCAAG,-0.318
14,GGUCACGUCUCAAUCAACUCAUCGUCAGGAGUUUUCUCCUGUUUAUUCAACAGCUCGCAGUCAAG,-0.0962
15,GGUCACGUCUCAAUCAACUCAUUUCCCAGGGAAAACCCUGGCUUUCUCAACAGCUCGCAGUCAAG,0.114
16,GGUCACGUCUCAAUCAACUCUUCCUCAGGAGUUUUCUCCUGUAUUCUCAACAGCUCGCAGUCAAG,-0.0396
17,GGUCACGUCUCAAUCAACUCUUCUCCAGGAGUUUCCUCCUGUUUAUUCAACAGCUCGCAGUCAAG,0.0101
18,GGUCACGUCUCAAUCAACUCAGUCCCAGGAGUUUACUCCUGCAAAUUCAACAGCUCGCAGUCAAG,-0.0653
19,GGUCACGUCUCAAUCAACUCAUCCCCCAGGGAAACCCCUGGUAUUCUCAACAGCUCGCAGUCAAG,0.14
20,GGUCACGUCUCAAUCAACUCAAUCGCAGGAGUUUUCUCCUGGUAUCUCAACAGCUCGCAGUCAAG,-0.0826
21,GGUCACGUCUCAAUCAACUCGUUUUCAGGAGUUUUCUCCUGUUUUCUCAACAGCUCGCAGUCAAG,0.053
22,GGUCACGUCUCAAUCAACUCAUUUUCAGGAGUUUACUCCUGCAUUUUCAACAGCUCGCAGUCAAG,-0.136
23,GGUCACGUCUCAAUCAACUCCUCAGAGGGGGGGAAAACCCCUUUACCCUCCUUAUCAACAGCUCGCAGUCAAG,0.431
24,GGUCACGUCUCAAUCAACUCUUACGAGGGGGGGAAAACCCCUUUACCCUCAUUCUCAACAGCUCGCAGUCAAG,0.166
